Read counts are not given, so values of variants with three or more changes are uncertain.

Sequences and labels used below:
B1: OR4K15 (parent)
chain: GUUAACGGUCAUAGGCCAUGGAAACUAGGAGCACCAUUUCGCUGCCAGUGAAGAAAUGAACAAAGAAAAUCUGGGCCAGGCAGGCAUCAAAAGAAAUAGUCUUGCGCUCAACCAGAAAGUCUGUAAUCAUUUUAAGGGUA

The variants in the data set derive from B1. Nature of the data set: self-cleavage, relative activity (ratio to wild type); higher = more cleavage; in vitro, sequencing; the parent is a self-cleaving ribozyme.
Regarding A62G A89C U131C, the self-cleavage turned out to be 1.02.

Consider A63G A96G A111G A129G, for which the self-cleavage stood at 0.02.

Consider A62G A63G U108C, for which the self-cleavage was 0.

Regarding A63G U70C C77A A78G A91G U131C, the self-cleavage came to 0.3.

With A60G A68G A82U, the self-cleavage was 0.13.

Consider A63G A82G A96C, for which the self-cleavage came to 0.28.

In the case of A63U A90G A95G, the self-cleavage worked out at 2.37.

For the variant C61U A64U A82G, the self-cleavage was determined as 0.6.

For A64G C77U U124C, the self-cleavage amounted to 1.49.

For the variant A63G U87C A96G A117G, the self-cleavage is 2.11.

Turning to A62G A116G U130C, the self-cleavage came out at 0.13.

In the case of A64G C105U A126G G136C, the self-cleavage came out at 0.06.

Take A66G A67G A96U A117G: the self-cleavage was 1.63.

In the case of A63U A67G A91G U97C U122C, the self-cleavage was 0.27.

Turning to A62U U72C U100A, the self-cleavage was determined as 0.08.

On to A64G U103C U120C A126G, for which the self-cleavage was determined as 0.24.

Turning to A64G A116U U130C, the self-cleavage is 0.07.

Take A66U A117G U127A: the self-cleavage is 1.46.

For the variant A66G A69G A110G, the self-cleavage was 0.2.

For A62U A86U A94G, the self-cleavage amounted to 2.01.

With A63G A114G A125C, the self-cleavage stood at 0.6.

With A63G A78G A94G, the self-cleavage stood at 0.16.

In the case of A62G A92G A116G G137A, the self-cleavage was 0.84.

Consider C61U A82U A89G U100C A140G, for which the self-cleavage was 0.24.

As to C61U A114G A126G, the self-cleavage came to 0.62.

Consider A64G G83A A95G U132A, for which the self-cleavage came out at 2.38.

In the case of A63G A78U U133A A135U, the self-cleavage worked out at 0.31.

Take A66G U87A A89G A91G: the self-cleavage was 0.44.

For the variant A60G A68G C81A U102A A114U, the self-cleavage worked out at 0.02.

On to A63U G74C A117U, for which the self-cleavage was 0.11.

Regarding A60G U72C U122C, the self-cleavage turned out to be 0.08.

For A64G U97C U108C A134G, the self-cleavage came to 0.

Turning to A66G A92G A117U, the self-cleavage came out at 0.6.

For the variant A60U A62G U103C, the self-cleavage amounted to 1.18.

As for A62G A95G U103A U122A, the self-cleavage is 1.05.

With G65A U102A G104A U108A, the self-cleavage was 0.

On to A67G A90G A92G A98G U120A A126G A140G, for which the self-cleavage was found to be 0.24.

With A64G A86G A92G U122C G136C, the self-cleavage came to 0.94.

With A63G A98G A140U, the self-cleavage amounted to 1.17.

For the variant A64G U87C U103C, the self-cleavage is 0.98.

As to A60G A66U U130C, the self-cleavage came to 0.88.

For the variant A63U A68G U120A, the self-cleavage stood at 2.46.

For the variant C61U A90G U130C, the self-cleavage stood at 0.9.

As for A60C U72C A116G, the self-cleavage came out at 0.17.

For A67G A90G U102C A110G, the self-cleavage was 0.06.

Consider A60G A78G U103C A116G, for which the self-cleavage was determined as 0.04.

For A63G A64G A111C A118G, the self-cleavage turned out to be 0.02.

As to A62G A95G A116G, the self-cleavage was 1.46.

On to A67G A82G A90G, for which the self-cleavage amounted to 0.18.

For A62C A92G A94G, the self-cleavage came out at 0.8.

As for A66G A96G A126G, the self-cleavage is 0.52.

On to A60C A64G A92G G137U, for which the self-cleavage was 2.03.

With A62C A64U C85A, the self-cleavage came to 0.47.

A67G A82U C85U A116G U122C A125G: the self-cleavage was 0.01.

Turning to A64G A69U A90G U124A, the self-cleavage was 0.65.

Take A63U U102C A116U: the self-cleavage stood at 1.28.

A64G A118G A129G: the self-cleavage was 0.14.

As to A63G U72A A96G, the self-cleavage was found to be 0.2.

For A60G U102C A110G C128U, the self-cleavage was 0.11.

For A62G U72C A91G, the self-cleavage worked out at 0.09.

Regarding A60G A82U U87C, the self-cleavage was found to be 0.3.

As to A60G U72C U103C, the self-cleavage amounted to 0.02.

With A59U U102C U122C, the self-cleavage was 1.16.

For the variant A67G A86G A111G A129G, the self-cleavage was 0.

Turning to A60G A68C A95G, the self-cleavage was found to be 1.82.

As to A60G A63U U131C, the self-cleavage is 1.95.

For the variant A64G A68G G136A, the self-cleavage turned out to be 1.74.

For A60U U122A A135U, the self-cleavage amounted to 2.17.

For A67G A78G A89G A90G, the self-cleavage was determined as 0.25.

For A66G U70C U97C A110G U132C, the self-cleavage worked out at 0.23.

Take A62G A89G A92G A110C: the self-cleavage amounted to 0.2.

For the variant A60G A86G U122G, the self-cleavage is 1.51.

With A63G A91U A114U, the self-cleavage came out at 0.4.

For the variant A62G U103C U108A, the self-cleavage is 0.01.

Consider A64G U103A A114U U122C, for which the self-cleavage was determined as 0.01.

Consider A60G A68U U127C A140G, for which the self-cleavage is 1.1.

For A60U A78G A95U, the self-cleavage is 0.09.

As for A60G G73A A111G, the self-cleavage was 0.03.

As to A64G A69G U103C A114G, the self-cleavage stood at 0.16.

On to A63U U72C U102C A114G, for which the self-cleavage turned out to be 2.22.

Regarding A64G C109U A110G, the self-cleavage amounted to 0.02.

A66G A67G A89G U108A: the self-cleavage worked out at 0.01.

With A60U A91G A96G A116G, the self-cleavage was found to be 0.37.

Regarding A62C U70C A94G, the self-cleavage is 1.5.

Consider A63G U122C U131C, for which the self-cleavage amounted to 1.07.

As for A67G A78G A89G, the self-cleavage worked out at 0.17.

With A63G A116G A135U, the self-cleavage was determined as 0.47.

As to A66G U97C U103C, the self-cleavage is 0.73.

Regarding A64G A69G G137A, the self-cleavage is 0.8.

Consider A62G A82G A140G, for which the self-cleavage was determined as 0.6.

Turning to A64G A96U U122C, the self-cleavage came to 0.76.

A63G A86U A110G A126G: the self-cleavage was 0.11.

As to A67G A68G U72C, the self-cleavage was found to be 0.16.

For the variant A66U A117G A118G U124A, the self-cleavage worked out at 0.71.

For the variant A62G A90G A117G, the self-cleavage is 1.27.

A62U U87C A117G: the self-cleavage is 1.8.

For A60U A64G A82G A118G U122C U131C, the self-cleavage was found to be 0.21.

For A63G A67U A90G, the self-cleavage was determined as 0.89.

Regarding A63G A78G A95G A116G, the self-cleavage is 0.14.

With A60G U72C A86G, the self-cleavage came out at 0.08.

Turning to A60C A117G U131C, the self-cleavage worked out at 2.09.

Regarding A66G U120A C128A, the self-cleavage is 1.29.

Turning to A62G A82C A118C, the self-cleavage was 0.09.

A60G U87A A129G A135G: the self-cleavage amounted to 0.92.

A64G A66G U72C: the self-cleavage was 0.29.

With A64G A90G A114U A116G, the self-cleavage came to 0.01.

Take A60G A67G A86G A89G A116G: the self-cleavage came to 0.37.

As to A63G A67G A69G A90G A96G U132C, the self-cleavage turned out to be 0.57.

Consider A62G U72A U87C A96U, for which the self-cleavage turned out to be 0.1.

As to A60G G80A A140G, the self-cleavage worked out at 0.3.

Consider A60G A86U C105U C121A, for which the self-cleavage was 0.45.

With A60G A82U U102A A116G, the self-cleavage came to 0.19.

As to A60G G73A A86G, the self-cleavage came to 0.11.

As for A60U A63G U131C, the self-cleavage is 1.48.

As to A60G A69G A82U, the self-cleavage came to 0.18.

With A60U C109U U132C, the self-cleavage was 0.54.

On to A66U A86G A91G A94G U100C, for which the self-cleavage is 1.37.

Take A60G A98G A126G A129G: the self-cleavage stood at 0.3.

Consider A63G A68G A78U U139C, for which the self-cleavage came to 0.4.

As for A66G A91G G106A, the self-cleavage turned out to be 0.

A60U A68G U139C: the self-cleavage is 1.5.

On to A60G U108C A140G, for which the self-cleavage turned out to be 0.01.

As to A60G A86U A92G A95G A110G A116G, the self-cleavage came to 0.08.

As to A63G U102C A125G, the self-cleavage was 0.64.

For A64G A96G A111U U131C, the self-cleavage came out at 0.05.

Regarding A64G U108C A116G, the self-cleavage came to 0.01.

Turning to A62G U72A A95G U124A U133C, the self-cleavage amounted to 0.3.

As for A66U A91G A140G, the self-cleavage is 0.84.

Consider A66G U122A A126U, for which the self-cleavage came to 1.06.

For A66G A91G A116G, the self-cleavage is 0.43.

Take A60G A66G A118G: the self-cleavage came out at 0.78.

On to A62C A64G A110G, for which the self-cleavage is 0.2.

Regarding A62G A82G A89G U120C A129G, the self-cleavage was 0.15.

A64G A110U U130C: the self-cleavage amounted to 0.51.

A62G A68G A96G: the self-cleavage amounted to 2.31.

Consider A60G A64G U130C, for which the self-cleavage worked out at 1.07.

With A59U U102C A116G, the self-cleavage came to 1.65.

For A66U U87A C88U, the self-cleavage came to 1.09.

On to A67G A78U U130C, for which the self-cleavage is 0.11.

Turning to A64G A110C A135G, the self-cleavage was 0.18.

Regarding A62G U87C A135U, the self-cleavage was 1.44.

On to A62G A66G A68G U87C A95G A126G, for which the self-cleavage is 0.83.

Take A67G A78U A86G: the self-cleavage was determined as 0.14.

As to A60G A66G G106C, the self-cleavage was 0.01.

Take A62U A110C A118G: the self-cleavage stood at 0.2.

Take A63G A96G U102A A125C A140G: the self-cleavage is 1.29.

For A63G A68G A86U A95G U124C, the self-cleavage was found to be 1.54.

For the variant A64G U100A G115A G137A, the self-cleavage came to 0.

As for A60G A92G A129C, the self-cleavage was 1.15.

Turning to A64U A89G A96G, the self-cleavage stood at 0.85.

Turning to A62G A89G G137A, the self-cleavage is 1.13.

Consider A60G A68U U102C U103C, for which the self-cleavage is 0.18.

As for A64G A95G U139G A140U, the self-cleavage amounted to 2.76.

Consider A63G A66U A90G U108C, for which the self-cleavage is 0.04.

Consider A60C U122C A129G, for which the self-cleavage worked out at 1.06.

As to A63G A64G A140U, the self-cleavage turned out to be 2.08.

Regarding A66G U103C A135G, the self-cleavage was found to be 0.92.

For the variant A66U G73A U132C, the self-cleavage stood at 0.18.

Regarding A66G U72A A89U, the self-cleavage stood at 0.35.

Take A63G A66G A126G: the self-cleavage was determined as 0.6.

In the case of A62U G79A U122C, the self-cleavage amounted to 0.11.

In the case of A60G A78G U108C A111G U131C, the self-cleavage worked out at 0.13.

Turning to A59U U87A A126G, the self-cleavage came to 1.28.

With A60U U102A A111G, the self-cleavage is 0.01.

As for A63G A69G A86C U120C U127C U139A, the self-cleavage was 0.15.

As to A66G U132C A140G, the self-cleavage was 1.17.

Regarding A60U A64G A125G A140G, the self-cleavage was 1.24.

For the origin of these results see the RNAGym collection of RNA variant scans (doi:10.7554/elife.90254).
